In the supplement of paper PMC4967469:
By IC50 is meant the dose at which the fit gives 50% viability; where the fit passes the top or lowest dose, that dose stands as a limit. AUC sums up the same curve from the lowest dose to the 256-fold higher top dose; values near 1 show little effect. The top dose, if marked as inferred, is not printed in the source and was worked back from the curve model.

Each cell line was assayed with CC1=C(C(=O)Nc2cc3cn[nH]c3cc2F)C(c2ccc(C(F)(F)F)cc2)CC(=O)N1 [GSK429286A] (assay: Viability of human cancer cell lines after 72 h of drug (GDSC screen)). Settings: top dose inferred.
Description: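 Human cancer cell lines in 384-well plates, medium with 10% serum, drug for 72 h over a 256-fold dose range (nine 2-fold or five 4-fold steps up to the top dose). Adherent lines were fixed and stained with the nucleic acid dye Syto60, suspension lines read with resazurin; signal relative to control wells, capped at 0 and 100%. One two-parameter sigmoid per drug and line, fitted in a mixed model over all curves with the slope shared within a line.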
“LB1047-RCC (kidney, adherent, top dose 20 µM)” gave an AUC of 0.976 and an IC50 of over 20 µM. For “LB2241-RCC (kidney, adherent, top dose 20 µM)”, the AUC was 0.983 and the IC50 was over 20 µM. “LB2518-MEL (melanoma, adherent, top dose 20 µM)” showed an AUC of 0.97 and an IC50 of over 20 µM. In the case of “LC4-1 (lymphoblastic leukaemia, suspension, top dose 20 µM)”, the AUC is reported as 0.932 and the IC50 is reported as over 20 µM. With “LC-1-sq (lung squamous cell carcinoma, adherent, top dose 20 µM)” the AUC was 0.971 and the IC50 was over 20 µM. In the case of “LC-2-ad (lung adenocarcinoma, adherent, top dose 20 µM)”, the AUC is reported as 0.977 and the IC50 is reported as over 20 µM. In the case of “LCLC-97TM1 (large cell lung carcinoma, adherent, top dose 20 µM)”, the AUC is reported as 0.982 and the IC50 is reported as over 20 µM. “LCLC-103H (large cell lung carcinoma, adherent, top dose 20 µM)” was tested, and the AUC was 0.974 and the IC50 was over 20 µM. Work on “LK-2 (lung squamous cell carcinoma, adherent, top dose 20 µM)” yielded an AUC of 0.955 and an IC50 of over 20 µM. Work on “LN-18 (glioma, adherent, top dose 20 µM)” yielded an AUC of 0.994 and an IC50 of over 20 µM. “LN-229 (glioma, adherent, top dose 20 µM)” showed an AUC of 0.983 and an IC50 of over 20 µM. “LN-405 (glioma, adherent, top dose 20 µM)” gave an AUC of 0.969 and an IC50 of over 20 µM. In the case of “LNCaP-Clone-FGC (prostate, adherent, top dose 20 µM)”, the AUC is reported as 0.955 and the IC50 is reported as over 20 µM. “LNZTA3WT4 (glioma, adherent, top dose 20 µM)” showed an AUC of 0.98 and an IC50 of over 20 µM. “LOU-NH91 (lung squamous cell carcinoma, adherent, top dose 20 µM)” was tested, and the AUC was 0.967 and the IC50 was over 20 µM. “LOUCY (T-cell lymphoblastic leukaemia, suspension, top dose 20 µM)” showed an AUC of 0.768 and an IC50 of 6.18 µM. With “LOXIMVI (melanoma, semi-adherent, top dose 20 µM)” the AUC was 0.983 and the IC50 was over 20 µM. Cell Line “LP-1 (myeloma, suspension, top dose 20 µM)” has an AUC of 0.979 and an IC50 of over 20 µM. With “LS-123 (large intestine, adherent, top dose 20 µM)” the AUC was 0.975 and the IC50 was over 20 µM. In the case of “LS-180 (large intestine, adherent, top dose 20 µM)”, the AUC is reported as 0.981 and the IC50 is reported as over 20 µM. With “LS-411N (large intestine, adherent, top dose 20 µM)” the AUC was 0.837 and the IC50 was 17.7 µM. With “LS-513 (large intestine, adherent, top dose 20 µM)” the AUC was 0.987 and the IC50 was over 20 µM. With “LS-1034 (large intestine, adherent, top dose 20 µM)” the AUC was 0.985 and the IC50 was over 20 µM. “LU-65 (large cell lung carcinoma, suspension, top dose 20 µM)” showed an AUC of 0.968 and an IC50 of over 20 µM. Cell Line “LU-99A (large cell lung carcinoma, adherent, top dose 20 µM)” has an AUC of 0.98 and an IC50 of over 20 µM. Work on “LU-134-A (small cell lung carcinoma, suspension, top dose 20 µM)” yielded an AUC of 0.968 and an IC50 of over 20 µM. In the case of “LU-135 (small cell lung carcinoma, suspension, top dose 20 µM)”, the AUC is reported as 0.899 and the IC50 is reported as 17.8 µM. “LU-139 (small cell lung carcinoma, suspension, top dose 20 µM)” was tested, and the AUC was 0.841 and the IC50 was over 20 µM. Cell Line “LU-165 (small cell lung carcinoma, suspension, top dose 20 µM)” has an AUC of 0.962 and an IC50 of over 20 µM. “LXF-289 (lung adenocarcinoma, adherent, top dose 20 µM)” gave an AUC of 0.918 and an IC50 of over 20 µM. Work on “LoVo (large intestine, adherent, top dose 20 µM)” yielded an AUC of 0.986 and an IC50 of over 20 µM. For “M14 (melanoma, adherent, top dose 20 µM)”, the AUC was 0.986 and the IC50 was over 20 µM. With “M059J (glioma, adherent, top dose 20 µM)” the AUC was 0.941 and the IC50 was over 20 µM. In the case of “MC116 (B-cell lymphoma, suspension, top dose 20 µM)”, the AUC is reported as 0.998 and the IC50 is reported as over 20 µM. In the case of “MC-CAR (haematopoietic neoplasm, suspension, top dose 20 µM)”, the AUC is reported as 0.963 and the IC50 is reported as over 20 µM. “MC-IXC (neuroblastoma, adherent, top dose 20 µM)” showed an AUC of 0.991 and an IC50 of over 20 µM. MCF7 (breast, adherent, top dose 20 µM) showed an AUC of 0.986 and an IC50 of over 20 µM. In the case of “MDA-MB-157 (breast, adherent, top dose 20 µM)”, the AUC is reported as 0.986 and the IC50 is reported as over 20 µM. With “MDA-MB-175-VII (breast, adherent, top dose 20 µM)” the AUC was 0.988 and the IC50 was over 20 µM. For “MDA-MB-231 (breast, adherent, top dose 20 µM)”, the AUC was 0.92 and the IC50 was over 20 µM. In the case of “MDA-MB-330 (breast, adherent, top dose 20 µM)”, the AUC is reported as 0.976 and the IC50 is reported as over 20 µM. “MDA-MB-361 (breast, adherent, top dose 20 µM)” showed an AUC of 0.988 and an IC50 of over 20 µM. In the case of “MDA-MB-415 (breast, adherent, top dose 20 µM)”, the AUC is reported as 0.983 and the IC50 is reported as over 20 µM. In the case of “MDA-MB-436 (breast, adherent, top dose 20 µM)”, the AUC is reported as 0.983 and the IC50 is reported as over 20 µM. Work on “MDA-MB-453 (breast, adherent, top dose 20 µM)” yielded an AUC of 0.979 and an IC50 of over 20 µM. “MDA-MB-468 (breast, adherent, top dose 20 µM)” showed an AUC of 0.981 and an IC50 of over 20 µM. In the case of “MDST8 (large intestine, adherent, top dose 20 µM)”, the AUC is reported as 0.979 and the IC50 is reported as over 20 µM. “ME-1 (acute myeloid leukaemia, suspension, top dose 20 µM)” showed an AUC of 0.987 and an IC50 of over 20 µM. With “ME-180 (cervix, adherent, top dose 20 µM)” the AUC was 0.982 and the IC50 was over 20 µM. In the case of “MEG-01 (chronic myeloid leukaemia, suspension, top dose 20 µM)”, the AUC is reported as 0.955 and the IC50 is reported as over 20 µM. With “MEL-JUSO (melanoma, adherent, top dose 20 µM)” the AUC was 0.957 and the IC50 was over 20 µM. For “MES-SA (uterus, adherent, top dose 20 µM)”, the AUC was 0.97 and the IC50 was over 20 µM. “MFE-280 (endometrium, adherent, top dose 20 µM)” gave an AUC of 0.982 and an IC50 of over 20 µM. “MFE-296 (endometrium, adherent, top dose 20 µM)” was tested, and the AUC was 0.982 and the IC50 was over 20 µM. For “MFE-319 (endometrium, adherent, top dose 20 µM)”, the AUC was 0.987 and the IC50 was over 20 µM. For “MFH-ino (soft tissue, adherent, top dose 20 µM)”, the AUC was 0.975 and the IC50 was over 20 µM. In the case of “MFM-223 (breast, adherent, top dose 20 µM)”, the AUC is reported as 0.979 and the IC50 is reported as over 20 µM. “MG-63 (osteosarcoma, adherent, top dose 20 µM)” was tested, and the AUC was 0.982 and the IC50 was over 20 µM. “MHH-ES-1 (Ewing sarcoma, adherent, top dose 20 µM)” showed an AUC of 0.952 and an IC50 of over 20 µM. “MHH-NB-11 (neuroblastoma, adherent, top dose 20 µM)” showed an AUC of 0.82 and an IC50 of 13 µM. In the case of “MHH-PREB-1 (B-cell leukaemia, suspension, top dose 20 µM)”, the AUC is reported as 0.981 and the IC50 is reported as over 20 µM. “MIA-PaCa-2 (pancreas, adherent, top dose 20 µM)” showed an AUC of 0.979 and an IC50 of over 20 µM. Cell Line “MKN1 (stomach, adherent, top dose 20 µM)” has an AUC of 0.954 and an IC50 of over 20 µM. Work on “MKN28 (stomach, adherent, top dose 20 µM)” yielded an AUC of 0.982 and an IC50 of over 20 µM. “MKN45 (stomach, adherent, top dose 20 µM)” gave an AUC of 0.98 and an IC50 of over 20 µM. “ML-1 (thyroid, adherent, top dose 20 µM)” was tested, and the AUC was 0.974 and the IC50 was over 20 µM. In the case of “ML-2 (acute myeloid leukaemia, suspension, top dose 20 µM)”, the AUC is reported as 0.575 and the IC50 is reported as 1.96 µM. For “MLMA (hairy cell leukaemia, semi-adherent, top dose 20 µM)”, the AUC was 0.93 and the IC50 was over 20 µM. With “MMAC-SF (melanoma, adherent, top dose 20 µM)” the AUC was 0.974 and the IC50 was over 20 µM. “MN-60 (B-cell leukaemia, suspension, top dose 20 µM)” showed an AUC of 0.963 and an IC50 of over 20 µM. Cell Line “MOG-G-CCM (glioma, adherent, top dose 20 µM)” has an AUC of 0.972 and an IC50 of over 20 µM. With “MOG-G-UVW (glioma, adherent, top dose 20 µM)” the AUC was 0.905 and the IC50 was over 20 µM. In the case of “MOLM-13 (acute myeloid leukaemia, suspension, top dose 20 µM)”, the AUC is reported as 0.837 and the IC50 is reported as 12.2 µM. For “MOLP-8 (myeloma, suspension, top dose 20 µM)”, the AUC was 0.867 and the IC50 was 16.8 µM. “MOLT-4 (lymphoblastic leukaemia, suspension, top dose 20 µM)” was tested, and the AUC was 0.884 and the IC50 was 14.7 µM. Cell Line “MOLT-13 (T-cell lymphoblastic leukaemia, suspension, top dose 20 µM)” has an AUC of 0.869 and an IC50 of 14.8 µM. With “MONO-MAC-6 (acute myeloid leukaemia, suspension, top dose 20 µM)” the AUC was 0.883 and the IC50 was over 20 µM. With “MPP-89 (mesothelioma, adherent, top dose 20 µM)” the AUC was 0.966 and the IC50 was over 20 µM. “MRK-nu-1 (breast, suspension, top dose 20 µM)” gave an AUC of 0.99 and an IC50 of over 20 µM.
